This is one part of the list. Rule as the data show it: active = 3.2 or more and inactive = the rest. The signal is at background level for most entries.
What was measured:
Experiment in all cases: enrichment score (SH2-bound / input frequency) (ratio); bacterial display of known human phosphotyrosine sites (pTyr-Var adds point mutants) read by sequencing; higher = stronger binding; tyrosines were phosphorylated by kinases first
Conditions in all cases: peptide library: pTyr-Var
[1] = biological target: SHP2 C-SH2 domain E139D
[2] = biological target: SHP2 C-SH2 domain wild-type
[3] = biological target: SHP2 N-SH2 domain L43F
[4] = biological target: SHP2 N-SH2 domain T42A
[5] = biological target: SHP2 N-SH2 domain T52S
[6] = biological target: SHP2 N-SH2 domain wild-type
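Also: displayed peptides selected on beads carrying the immobilized SH2 domain, with library peptides lacking any tyrosine serving as negative controls.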

| Binder | enrichment score [1] | enrichment score [2] | enrichment score [3] | enrichment score [4] | enrichment score [5] | enrichment score [6] |
| --- | --- | --- | --- | --- | --- | --- |
| RRSQSYIPTSG [PLEKHA2_Y185] | inactive: 0.244 | inactive: 0.287 | inactive: 0.285 | inactive: 0.312 | inactive: 0.224 | inactive: 0.271 |
| ERIEFYELNKK [PMM2_Y145_D148N] | inactive: 0.924 | inactive: 0.631 | inactive: 0.457 | inactive: 0.569 | inactive: 0.608 | inactive: 0.511 |
| SLIERYEPSET [PLCD1_Y258] | inactive: 0.542 | inactive: 0.539 | inactive: 0.611 | inactive: 0.527 | inactive: 0.629 | inactive: 0.703 |
| DRTVNYVLKCR [PLEKHG4_Y1068] | inactive: 0.572 | inactive: 0.846 | inactive: 0.659 | inactive: 0.737 | inactive: 0.563 | inactive: 0.897 |
| ADAGMYGVLPW [PLP1_Y207_R205G] | inactive: 0.795 | inactive: 0.703 | inactive: 0.68 | inactive: 0.778 | inactive: 0.665 | inactive: 0.771 |
| MRALIYNSSTA [PLEKHA7_Y243] | inactive: 0.734 | inactive: 0.746 | inactive: 0.601 | inactive: 0.558 | inactive: 0.768 | inactive: 0.999 |
| NGRTGDVLQPE [PLCG2_Y1036_Y1036D] | inactive: 0.848 | inactive: 0.799 | inactive: 0.78 | inactive: 0.519 | inactive: 0.623 | inactive: 0.784 |
| PVDVAYRHGYF [PLEC_Y2967_R2969H] | inactive: 0.99 | inactive: 0.821 | inactive: 0.913 | inactive: 0.738 | inactive: 0.774 | inactive: 1.42 |
| ADARMYGDLPW [PLP1_Y207_V209D] | inactive: 0.776 | inactive: 0.829 | inactive: 0.828 | inactive: 0.724 | inactive: 0.735 | inactive: 0.762 |
| TKAEKYVNKPK [PLCG1_Y991_A995P] | inactive: 0.659 | inactive: 1 | inactive: 0.828 | inactive: 0.611 | inactive: 0.62 | inactive: 0.865 |
| KRRGPYETSPS [PLPP7_Y172] | inactive: 0.291 | inactive: 0.259 | inactive: 0.294 | inactive: 0.243 | inactive: 0.274 | inactive: 0.302 |
| DVRQEYPGMIL [PLXND1_Y616] | inactive: 0.739 | inactive: 0.698 | inactive: 0.752 | inactive: 0.591 | inactive: 0.725 | inactive: 0.813 |
| RSACTYLAPHL [PLK3_Y615_S618P] | inactive: 0.956 | inactive: 1.39 | inactive: 1.23 | inactive: 1.42 | inactive: 1.1 | inactive: 1.24 |
| KLIETYFSKNY [PLP1_Y50] | inactive: 1.15 | inactive: 0.804 | inactive: 1 | inactive: 0.977 | inactive: 0.638 | inactive: 0.959 |
| KYLENYLNCLL [PLD2_Y169_R172C] | inactive: 2.81 | inactive: 3.12 | active: 3.22 | inactive: 2.96 | inactive: 2.72 | inactive: 2.93 |
| AFRRGYFDEEM [PLEC_Y2971_YF] | inactive: 0.301 | inactive: 0.315 | inactive: 0.326 | inactive: 0.342 | inactive: 0.369 | inactive: 0.539 |
| ANARMYGVLPW [PLP1_Y207_D203N] | inactive: 0.826 | inactive: 0.744 | inactive: 0.922 | inactive: 0.619 | inactive: 0.687 | inactive: 1.07 |
| SGDITYGQFAQ [PLCG1_Y210] | inactive: 0.843 | inactive: 0.759 | inactive: 0.765 | inactive: 0.585 | inactive: 0.614 | inactive: 0.646 |
| TTKAKYKTPIY [PLD2_Y573_T577I] | inactive: 0.828 | inactive: 0.78 | inactive: 0.822 | inactive: 0.584 | inactive: 0.628 | inactive: 1.04 |

| Binder | enrichment score [1] | enrichment score [2] | enrichment score [3] | enrichment score [4] | enrichment score [5] | enrichment score [6] |
| --- | --- | --- | --- | --- | --- | --- |
| ERIEFYELDKK [PMM2_Y145] | inactive: 0.928 | inactive: 0.689 | inactive: 0.783 | inactive: 0.753 | inactive: 0.768 | inactive: 0.604 |
| KLIETYSSKNY [PLP1_Y50_F51S] | inactive: 0.994 | inactive: 0.925 | inactive: 0.965 | inactive: 0.877 | inactive: 0.855 | inactive: 1.24 |
| AHARMYGVLPW [PLP1_Y207_D203H] | inactive: 0.769 | inactive: 0.798 | inactive: 0.628 | inactive: 0.642 | inactive: 0.711 | inactive: 0.8 |
| ADARMYGVLPR [PLP1_Y207_W212R] | inactive: 0.431 | inactive: 0.357 | inactive: 0.551 | inactive: 0.48 | inactive: 0.497 | inactive: 0.505 |
| NGRTGYVLQPE [PLCG2_Y1036] | inactive: 0.714 | inactive: 0.598 | inactive: 0.77 | inactive: 0.627 | inactive: 0.746 | inactive: 0.754 |
| KYLENYLNRLL [PLD2_Y169] | active: 3.61 | active: 3.78 | active: 3.47 | active: 3.24 | inactive: 3.03 | active: 3.35 |
| KPIETYFSKNY [PLP1_Y50_L46P] | inactive: 0.828 | inactive: 0.567 | inactive: 0.763 | inactive: 0.566 | inactive: 0.762 | inactive: 0.758 |
| NGLVAYKDGKL [PMM2_Y76] | inactive: 0.913 | inactive: 0.887 | inactive: 0.689 | inactive: 0.749 | inactive: 0.823 | inactive: 0.851 |
| AEARMYGVLPW [PLP1_Y207_D203E] | inactive: 0.911 | inactive: 0.877 | inactive: 0.911 | inactive: 0.831 | inactive: 1.08 | inactive: 1 |
| SLIEHYEPSET [PLCD1_Y258_R257H] | inactive: 0.718 | inactive: 0.48 | inactive: 0.617 | inactive: 0.571 | inactive: 0.476 | inactive: 0.711 |
| DASAVYLRDFQ [PLCG2_Y242_H244R] | inactive: 0.838 | inactive: 0.892 | inactive: 0.742 | inactive: 0.64 | inactive: 0.707 | inactive: 0.67 |
| DGTESYHTVSS [PLK1_Y462_L463H] | inactive: 0.384 | inactive: 0.346 | inactive: 0.585 | inactive: 0.291 | inactive: 0.649 | inactive: 0.68 |
| AGARMYGVLPW [PLP1_Y207_D203G] | inactive: 0.761 | inactive: 0.738 | inactive: 0.817 | inactive: 0.693 | inactive: 0.677 | inactive: 0.955 |
| KLIETYSSKNF [PLP1_Y50_F51S_YF] | inactive: 0.952 | inactive: 1.02 | inactive: 0.929 | inactive: 0.748 | inactive: 0.685 | inactive: 1.34 |
| MRALIYNSSTV [PLEKHA7_Y243_A248V] | inactive: 0.703 | inactive: 0.716 | inactive: 0.707 | inactive: 0.52 | inactive: 0.634 | inactive: 0.796 |
| ADARMYGVLPW [PLP1_Y207] | inactive: 0.877 | inactive: 0.684 | inactive: 0.751 | inactive: 0.745 | inactive: 0.817 | inactive: 1.01 |
| AYRRGYFDEEM [PLEC_Y2971] | inactive: 0.339 | inactive: 0.289 | inactive: 0.317 | inactive: 0.304 | inactive: 0.4 | inactive: 0.399 |
| PVKDPYVMFPQ [PLEKHG2_Y489] | inactive: 0.954 | inactive: 0.997 | inactive: 1.12 | inactive: 1.15 | inactive: 0.752 | inactive: 1.06 |
